IC50 and Kd data for five compounds are collected here from patent US20230227428A1 (Anaxis Pharma Pty Ltd, priority 2020, published 2023).

As usually defined, the IC50 is the concentration that inhibits the measured activity by half. For orientation: Kd means the equilibrium constant for the complex coming apart. Lower therefore signals higher affinity.

The test system of experiment [1] is U937 cells. The experiment can be described thus: Counter screen: cell viability of U937 cells treated with compound without the TSQ cocktail (off-target effect). The following applies: Homo sapiens, U-937, compound in DMSO without the TSQ cocktail, cell viability by CelltiterGlo, read-out: Off-target effect (IC50 cell-based assay). As for the experimental part:
(§1) Cell Line ID: U937 human histiocytic leukemia cell line.
(§2) The cellular assay was carried out according to the following steps: • 1. Each well was prepared by sequential addition of: • a. DMSO (control; columns 1-2 and 23-24) or compound in DMSO—addition was performed using acoustic transfer of nl volumes of stock compound to give final test concentrations of 36, 12, 4, 1.3, 0.44, 0.148, 0.049, 0.016, 0.005 and 0.002 μM. All wells were backfilled with DMSO to a final total volume in the well of 100 nl. • b. Following compound/DMSO addition in step (a), 40 μL of cell suspension (5×10^5 cells/mL) was added to provide a final cell concentration of 20,000 cells per well, and • c. Following cell addition in step (b), 10 μL of 5×TSQ cocktail (except to positive controls; […]) was added to each well. • 2. After 48 hours, plate was removed from the 37° C. incubator and equilibrated to room temperature for 45 minutes. • 3. 15 μL of room temperature CellTitre-Glo2™ (Promega™) was added to each well. • 4. Shook plates for 2 minutes (˜600 rpm) and incubated at room temperature for 15 minutes to allow signal to stabilise. • 5. Read luminescence readout on a plate reader.
(§3) Curve fitting: 10-point titration curves are fitted with the 4-parameter logistic nonlinear regression model and the IC50 reported is the inflection point of the curve
Counter screen: In parallel, all compounds were tested for their ability to affect cell viability. The same U937 cells were treated with compound in DMSO without the TSQ cocktail. This counter screen enabled evaluation of off-target effects. In this case, cell viability was measured by CelltiterGlo.
On the technique in general: The purpose of a counterscreen is to sort out artefacts and off-target activity.

The subject of experiment [2] is U937 human histiocytic leukemia cell line. Put plainly: Cellular assay: inhibition of TSQ induced necroptosis, 384 well plate format. The following applies: U-937, U937 cells, TSQ cocktail (TNF, Smac mimetic, Q-VD-OPh), 48 hours, CellTitre-Glo, read-out: Inhibition of TSQ-induced necroptosis (IC50 cell-based assay). As for the experimental part:
Cellular Assay: Screening Compounds for Inhibition of TSQ Induced Necroptosis, 384 Well Plate Format.
as §1
Cell Concentration (cells/well): Final cell density is 20000 cells per well.
Cell growth medium: HT-RPMI medium+7.4% Fetal Bovine Serum (FBS). Cells are cultured in Corning 150 cm^2 tissue culture flasks with vented caps at 37° C./5% CO2.
Incubation: Plates were incubated at 37° C./5% CO2 in a humidified incubator for 48 hours following addition of compounds and death stimuli (TSQ cocktail).
Compound concentration: 36 μM starting concentration, 1:3 dilution, 10 point
DMSO final concentration (% v/v): 0.3%.
Compounds in TSQ cocktail (T: TNF; S: Smac mimetic; Q: Q-VD-OPh) and their final concentrations:
hTNF-Fc (100 ng/ml)—produced by standard procedures as shown in Bossen et al., J Biol Chem, 2006, 281(20), 13964-13971.
Compound A (500 nM)—Smac mimetic, Tetralogic and SYNthesis med chem Q-VD-OPh (10 μM)—MP Biomedicals
as §2
Percent viability was calculated for each compound according to equation (2):
% viability=100×((RawData−NSA)/(TA−NSA) (2)
wherein RawData is the readout of any cell containing a compound of the invention TA is the total activity provided by the luminescence readout from DMSO only wells (columns 2 and 24)=100% viability NSA is the non-specific activity provided by DMSO+TSQ wells (columns 1 and 23)=0% viability
as §3
Analysis: Data was loaded into Dotmatics™ and visualised using the Tibco® Spotfire™ software. points titration curve were fitted with the 4 parameter logistic nonlinear regression model and the IC50 reported reflect the inflection point of the curve for curve fitting.
Assay involving the TSQ cocktail (T: TNF; S: Smac mimetic; Q: Q-VD-OPh): TSQ treatment ensures that cells specifically undergo necroptotic cell death. […] The compounds' activity (solution in DMSO) tested in this TSQ-induced assay was evaluated by determining the number of viable cells in culture by measuring the amount of ATP present as measured by CelltiterGlo.

For experiment [3], the target named is T1, RIP1 (Homo sapiens, UniProt Q13546).
T1 construct: purchased DiscoverX (KINOMEscan service); host or cells: E. coli BL21-derived host (T7 phage) or HEK-293
T1 sequence (Q13546 1-671): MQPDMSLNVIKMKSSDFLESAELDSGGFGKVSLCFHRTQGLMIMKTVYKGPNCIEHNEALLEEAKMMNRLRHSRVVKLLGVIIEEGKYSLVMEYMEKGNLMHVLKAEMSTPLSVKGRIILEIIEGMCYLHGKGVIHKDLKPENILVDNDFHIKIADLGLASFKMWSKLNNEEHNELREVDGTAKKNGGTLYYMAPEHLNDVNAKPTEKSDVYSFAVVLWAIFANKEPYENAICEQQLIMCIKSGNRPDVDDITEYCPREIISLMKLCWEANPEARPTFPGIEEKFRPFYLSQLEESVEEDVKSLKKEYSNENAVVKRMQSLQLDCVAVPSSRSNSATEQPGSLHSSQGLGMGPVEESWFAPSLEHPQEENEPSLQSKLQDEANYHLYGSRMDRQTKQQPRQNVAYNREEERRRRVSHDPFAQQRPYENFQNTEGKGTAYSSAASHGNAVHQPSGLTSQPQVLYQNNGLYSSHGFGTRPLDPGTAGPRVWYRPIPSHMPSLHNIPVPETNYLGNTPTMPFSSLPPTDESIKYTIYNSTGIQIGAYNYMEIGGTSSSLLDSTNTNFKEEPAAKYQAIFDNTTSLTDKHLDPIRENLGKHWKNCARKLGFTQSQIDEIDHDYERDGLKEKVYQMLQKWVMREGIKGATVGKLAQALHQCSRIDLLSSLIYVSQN
The experiment can be described thus: KINOMEscan binding affinity assay, RIP1. Conditions: equilibrium dissociation constant. From the text:
(§4) The Hill Slope was set to −1.

Experiment [4] deals with T2, RIP3 (Homo sapiens, UniProt Q9Y572).
T2 construct: purchased DiscoverX (KINOMEscan service); host or cells: E. coli BL21-derived host (T7 phage) or HEK-293
T2 sequence (Q9Y572 whole entry): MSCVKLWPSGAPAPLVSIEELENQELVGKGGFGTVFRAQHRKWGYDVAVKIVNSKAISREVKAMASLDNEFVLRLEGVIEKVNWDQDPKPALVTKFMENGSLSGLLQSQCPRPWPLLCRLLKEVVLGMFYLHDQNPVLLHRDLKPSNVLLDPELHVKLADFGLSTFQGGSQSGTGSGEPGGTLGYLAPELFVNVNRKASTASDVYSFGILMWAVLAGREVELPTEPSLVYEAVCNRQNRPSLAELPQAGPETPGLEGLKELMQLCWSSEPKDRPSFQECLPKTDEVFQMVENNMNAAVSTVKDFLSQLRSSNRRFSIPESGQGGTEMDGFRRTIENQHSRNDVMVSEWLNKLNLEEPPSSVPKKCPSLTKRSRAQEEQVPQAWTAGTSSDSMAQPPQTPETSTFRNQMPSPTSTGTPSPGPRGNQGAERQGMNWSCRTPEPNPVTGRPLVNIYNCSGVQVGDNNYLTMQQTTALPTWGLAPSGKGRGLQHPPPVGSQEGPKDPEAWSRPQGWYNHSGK
The experiment can be described thus: KINOMEscan binding affinity assay, RIP3. Conditions: equilibrium dissociation constant.
Excerpt: as §4

The target of experiment [5] is T3, MLKL (full length) (Homo sapiens, UniProt Q8NB16).
T3 construct: purchased DiscoverX (KINOMEscan service); host or cells: E. coli BL21-derived host (T7 phage) or HEK-293
T3 sequence (Q8NB16 1-471): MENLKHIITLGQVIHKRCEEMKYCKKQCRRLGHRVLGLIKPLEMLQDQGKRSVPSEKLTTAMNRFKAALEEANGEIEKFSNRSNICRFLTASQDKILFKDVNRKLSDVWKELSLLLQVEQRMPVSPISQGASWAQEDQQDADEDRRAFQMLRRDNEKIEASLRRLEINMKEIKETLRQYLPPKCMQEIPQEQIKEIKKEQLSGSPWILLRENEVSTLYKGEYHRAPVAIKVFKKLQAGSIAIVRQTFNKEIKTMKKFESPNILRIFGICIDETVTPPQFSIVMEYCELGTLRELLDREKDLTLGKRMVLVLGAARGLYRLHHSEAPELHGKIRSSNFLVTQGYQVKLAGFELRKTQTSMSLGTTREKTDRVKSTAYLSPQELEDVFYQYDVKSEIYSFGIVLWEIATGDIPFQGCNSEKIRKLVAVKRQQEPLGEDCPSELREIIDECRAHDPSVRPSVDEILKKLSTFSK
Put plainly: KINOMEscan binding affinity assay, MLKL. The following applies: equilibrium dissociation constant.
Excerpt: as §4

Regarding `COc1ccc(C2CCCN(C(=O)Nc3ccc(-c4n[nH]c(Nc5cnccn5)c4C(N)=O)cc3)C2)cc1` (stereo not shown) [Compound 88, N-(4-(4-carbamoyl-5-(pyrazin-2-ylamino)-1H-pyrazol-3-yl)phenyl)-3-(4-methoxyphenyl)piperidine-1-carboxamide], the values for the IC50 in experiment [1] and in experiment [2] were above 1000 nM and 100 to 1000 nM, respectively.
Turning to `NC(=O)c1c(-c2ccc(NC(=O)N3CCCC(c4ccc(C(F)(F)F)cc4)C3)cc2)n[nH]c1Nc1cnccn1` (stereo not shown) [Compound 93, N-(4-(4-carbamoyl-5-(pyrazin-2-ylamino)-1H-pyrazol-3-yl)phenyl)-3-(4-(trifluoromethyl)phenyl)piperidine-1-carboxamide], the IC50 in experiment [1] was above 1000 nM; in experiment [2] it was 100 to 1000 nM.
For `NC(=O)c1c(-c2ccc(NC(=O)N3CCCC(c4cccc(F)c4)C3)cc2)n[nH]c1Nc1cnccn1` (stereo not shown) [Compound 95, N-(4-(4-carbamoyl-5-(pyrazin-2-ylamino)-1H-pyrazol-3-yl)phenyl)-3-(3-fluorophenyl)piperidine-1-carboxamide], in that order: above 1000 nM and below 100 nM.
As to `NC(=O)c1c(-c2ccc(NC(=O)N3CCCC(c4cccc(Cl)c4)C3)cc2)n[nH]c1Nc1cnccn1` (stereo not shown) [Compound 96, N-(4-(4-carbamoyl-5-(pyrazin-2-ylamino)-1H-pyrazol-3-yl)phenyl)-3-(3-chlorophenyl)piperidine-1-carboxamide], the IC50 in experiment [1] is above 1000 nM; in experiment [2] it was 100 to 1000 nM.
Take `NC(=O)c1c(-c2ccc(NC(=O)Nc3ccc(OC(F)(F)F)cc3)cc2)n[nH]c1Nc1cnccn1` [Compound 107, 5-(pyrazin-2-ylamino)-3-(4-(3-(4-(trifluoromethoxy)phenyl)ureido)phenyl)-1H-pyrazole-4-carboxamide]: the half-inhibitory concentration (IC50) in experiment [1] is above 1000 nM; in experiment [2], below 100 nM. Besides, the Kd is above 1000 nM in experiment [3], above 1000 nM in experiment [4] and below 100 nM in experiment [5].
